According to PubChem BioAssay AID588855 (National Center for Advancing Translational Sciences (NCATS), 2011):
In all, about 410,000 compounds went through this assay and about 5,000 (1.2%) were called active. Inconclusive means that the source gave no clear call. Such entries were picked first, then a sample of the others. The call rests on the fitted dose curve; in most records, active means well fitted inhibition curve with a large enough effect; inconclusive means small, poorly fitted or top-dose-only effect; inactive means no such curve, though single readings can be large or run the other way. A potency beside an inconclusive call is a rough fit, not a confirmed value.

assay: qHTS for Inhibitors of TGF-b; conditions: HepG2 CAGA-GFP TGF-b/SMAD3 reporter, GFP fluorescence, 18 h, TGF-beta stimulated, 500 pg/mL final; series mostly up to 46.1 µM; further: nearly all actives have a fitted effect of over 65% in size
In short: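 HEPG2 CAGA-GFP reporter cells (1000/well, DMEM with 1% FBS) received compounds, then recombinant TGF-beta at 500 pg/mL final for 18 hours at 37 degrees C. Per-cell GFP summed per well was normalised to unstimulated and stimulated DMSO controls before curve fitting.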
Potency means the concentration at half of the fitted maximal effect; tags describe the fitted curve by direction and shape.

**Q.** Which Potency does the source give for CCOc1ccc(S(=O)(=O)N2CCCC(C(=O)Nc3ccccc3)C2)cc1 (centres undefined) here?
**A.** Its Potency is “inactive”.

**Q.** For N#Cc1c2c(nc(N)c1-c1ccccc1)CCCCC2, which Potency is on record?
**A.** The Potency was inconclusive: 35.5 µM [inhibitor, single point].

**Q.** With Cc1ccc(NC(=O)CSc2nc3ccc(NC(=O)c4ccco4)cc3s2)cc1 as the compound, how does the Potency read?
**A.** The Potency was “inactive”.

**Q.** With Cc1ccc(NC(=O)CSc2nc(=O)n(Cc3ccccn3)c3c2CCC3)cc1F as the compound, how does the Potency read?
**A.** Its Potency is inconclusive: 11.2 µM [inhibitor, partial curve].

**Q.** With CC(C)Oc1ccc(CNC(=S)Nc2ccccc2)cc1Cl as the compound, how does the Potency read?
**A.** Its Potency is inconclusive: 20 µM [inhibitor, single point].

**Q.** For COc1cc(C(=O)NCc2ccc3c(c2)CCN3C(=O)c2ccc(Cl)cc2)cc(OC)c1OC, which Potency is on record?
**A.** Its Potency is inconclusive: 14.1 µM [inhibitor, partial curve, poor fit].

**Q.** With CCOC(=O)n1c(=O)oc2ccc(Cl)cc21 as the compound, how does the Potency read?
**A.** The Potency was “inactive”.

**Q.** With COc1ccc(NC(=O)CCS(=O)(=O)c2nc(-c3ccc4c(c3)OCO4)cc(C(F)(F)F)n2)cc1OC as the compound, how does the Potency read?
**A.** The Potency was “inactive”.

**Q.** With O=C(Nc1cccc(C(=O)OCc2cc(=O)n3c4c(sc3n2)CCCC4)c1)c1cccc(F)c1 as the compound, how does the Potency read?
**A.** Its Potency is inconclusive: 12.6 µM [inhibitor, single point].

**Q.** Which Potency does the source give for COc1ccccc1-c1ccc2c(c1)C(C)(Cc1ccc(Cl)c(Cl)c1)C(=O)N2 (centres undefined) here?
**A.** Its Potency is active: 14.1 µM.

**Q.** With COc1ccccc1C(=O)NCc1ccco1 as the compound, how does the Potency read?
**A.** Its Potency is “inactive”.

**Q.** Which Potency does the source give for N=c1n(Cc2ccccc2)c2ccccc2n1CC(O)COc1ccccc1 (centres undefined) here?
**A.** The Potency was inconclusive: 35.5 µM [inhibitor, single point].

**Q.** Which Potency does the source give for CCOc1ccccc1NC(=O)C1CCN(C(=O)c2cccs2)CC1 here?
**A.** Its Potency is inconclusive: 3.55 µM [inhibitor, full curve].

**Q.** Which Potency does the source give for Cc1nn(-c2ccccn2)c2c1C(=O)CC(C)(C)C2N=[N+]=[N-] (centres undefined) here?
**A.** Its Potency is inconclusive: 11.2 µM [inhibitor, partial curve, poor fit].

**Q.** For O=C(NCc1ccccc1)c1ccc(N2CCC3(CC2)CC(c2ccc(Cl)cc2)=NO3)c([N+](=O)[O-])c1, which Potency is on record?
**A.** The Potency was inconclusive: 20 µM [inhibitor, partial curve, poor fit].

**Q.** With COC(=O)c1ccc(Cn2nnc3c(=O)[nH]c(C4CCN(S(=O)(=O)c5cc(C)ccc5C)CC4)nc32)cc1 as the compound, how does the Potency read?
**A.** Its Potency is “inactive”.

**Q.** For Cc1nc(SCC(=O)NC2(C#N)CCCC2)n(CC(C)C)c1C, which Potency is on record?
**A.** The Potency was “inactive”.

**Q.** For O=C(Cn1cnc2cc([N+](=O)[O-])ccc2c1=O)Nc1cccc(S(=O)(=O)N2CCCCC2)c1, which Potency is on record?
**A.** Its Potency is “inactive”.

**Q.** With CCOC(=O)c1ccc(N2C(=O)c3[nH]nc(-c4ccc(OC)cc4)c3C2c2cccc(O)c2)cc1 (centres undefined) as the compound, how does the Potency read?
**A.** Its Potency is active: 15.8 µM.

**Q.** With COc1cc(NC(=O)c2cc(-c3cccc(O)c3)on2)cc(OC)c1OC as the compound, how does the Potency read?
**A.** Its Potency is inconclusive: 35.5 µM [inhibitor, single point].

**Q.** With CCc1cccc(NC(=O)CSc2ncc3c(n2)-c2cc(Cl)ccc2N(C)S3(=O)=O)c1 as the compound, how does the Potency read?
**A.** Its Potency is “inactive”.

**Q.** Which Potency does the source give for CCN(CC)CCn1c(=N)n(CC(O)COc2cccc(C)c2)c2ccccc21 (centres undefined) here?
**A.** The Potency was inconclusive: 25.1 µM [inhibitor, single point].

**Q.** With CC(C)NC(=O)CSc1nnc(-c2ccc(C(C)(C)C)cc2)n1C as the compound, how does the Potency read?
**A.** Its Potency is “inactive”.

**Q.** With Cc1cc(C)n(-c2nc(NCc3cccnc3)c3c4c(sc3n2)COC(C)(C)C4)n1 as the compound, how does the Potency read?
**A.** The Potency was inconclusive: 15.8 µM [inhibitor, single point].

**Q.** Which Potency does the source give for Cc1ccc(-c2nc3cccc(C)n3c2Nc2ccc3c(c2)OCCO3)cc1 here?
**A.** The Potency was “inactive”.

**Q.** For COc1ccc(NC(=O)N(C)C[C@H]2Oc3ccc(NC(=O)C4CCCCC4)cc3C(=O)N([C@H](C)CO)C[C@@H]2C)cc1, which Potency is on record?
**A.** Its Potency is inconclusive: 8.91 µM [inhibitor, partial curve, poor fit].

**Q.** For CCC(=O)N1CCCc2cc(S(=O)(=O)N3CCCc4ccccc43)ccc21, which Potency is on record?
**A.** Its Potency is “inactive”.

**Q.** For Cc1coc2c1c(C)cc1oc(=O)c(CC(=O)N[C@@H](C)C(=O)O)c(C)c12, which Potency is on record?
**A.** The Potency was “inactive”.

**Q.** Which Potency does the source give for COc1ccc(OC(F)(F)F)cc1CC1(C)C(=O)Nc2c(Cl)ccc(Cl)c21 (centres undefined) here?
**A.** The Potency was inconclusive: 15.8 µM [inhibitor, partial curve, poor fit].

**Q.** For COC(=O)CCCCC(=O)C1C(=O)CC(C)(C)C(C(=O)OC)C1=O (centres undefined), which Potency is on record?
**A.** The Potency was inconclusive: 35.5 µM [inhibitor, single point].

**Q.** Which Potency does the source give for CC(OCC(O)CN1CCN(S(=O)(=O)c2ccc(Cl)cc2)CC1)c1ccc(Cl)cc1 (centres undefined) here?
**A.** The Potency was inconclusive: 35.5 µM [inhibitor, single point].

**Q.** Which Potency does the source give for Cc1ccccc1C(=O)Oc1cccc2c(O)cccc12 here?
**A.** Its Potency is inconclusive: 35.5 µM [inhibitor, single point].

**Q.** For COc1ccc(/C=C/C(=O)C23CC4CC(CC(C4)C2)C3)cc1CN1CCOCC1, which Potency is on record?
**A.** The Potency was inconclusive: 25.1 µM [inhibitor, single point].

**Q.** Which Potency does the source give for CCCCN(C)C(=O)CSc1c2c(nc3ccc(Cl)cc13)CCCC2 here?
**A.** The Potency was inconclusive: 22.4 µM [inhibitor, single point].

**Q.** For CSc1nc(N)nc2c1ncn2Cc1ccccc1, which Potency is on record?
**A.** Its Potency is “inactive”.

**Q.** Which Potency does the source give for Cc1cc([N+](=O)[O-])nn1CCCC(=O)N1CCN(c2ccc(F)cc2)CC1 here?
**A.** Its Potency is “inactive”.

**Q.** For COc1ccccc1-n1c(-c2ccccc2)c[n+]2c1CCc1ccccc1-2, which Potency is on record?
**A.** Its Potency is active: 12.6 µM.

**Q.** With O=C(Nc1ccc2nc(-c3cccs3)c(-c3cccs3)nc2c1)N1CCCC1 as the compound, how does the Potency read?
**A.** Its Potency is “inactive”.

**Q.** Which Potency does the source give for CN(CC(=O)Nc1ccc(F)cc1)C(=O)COc1ccccc1Cc1ccccc1 here?
**A.** The Potency was inconclusive: 35.5 µM [inhibitor, single point].

**Q.** For N#C/C(=C\c1ccc(N2CCOCC2)o1)C(=O)NCC1CCCO1 (centres undefined), which Potency is on record?
**A.** The Potency was “inactive”.

**Q.** With O=C1C=C(c2ccc3ncccc3c2)C[C@@H](c2ccc3c(c2)OCO3)C1 as the compound, how does the Potency read?
**A.** Its Potency is inconclusive: 4.47 µM [inhibitor, partial curve].

**Q.** With O=C(c1ccc(Cl)cc1)C1CCCN(Cc2ccc(Oc3ncccn3)cc2)C1 (centres undefined) as the compound, how does the Potency read?
**A.** The Potency was inconclusive: 8.91 µM [inhibitor, partial curve, poor fit].

**Q.** Which Potency does the source give for CCN(CC)S(=O)(=O)c1cccc(C(=O)N[C@H](C(=O)OCC(=O)Nc2ccccc2)C(C)C)c1 here?
**A.** The Potency was inconclusive: 25.1 µM [inhibitor, single point].

**Q.** With Brc1ccc2nc(-c3ccccc3)c(Cc3ccsc3)n2c1 as the compound, how does the Potency read?
**A.** Its Potency is inconclusive: 11.2 µM [inhibitor, partial curve, poor fit].
